{"source": "the supplement of paper PMC8728848", "binders": {"B1": {"name": "MpL2 (Macrolepiota procera) (protein)", "chain": "MSTQVSSGQTYKITNVKAGTVIRLSGEDNKSIIGYPYHSGKNQQWTFNWTGKAWTLRSASSGSYLGIEGTPADGTRLVAVNDPFEWHIWRDEANENAFRIFVPFTNYNLDLSGYGDTTPGTPVQLWWTWEGLHQTWTIDRP"}}, "assay_in_all_cases": "glycan array binding signal (z-score within array); higher = stronger binding", "settings_in_all_cases": "glycan notation: IUPAC condensed, linker removed; mutation: D22R", "key": {"Gal(a1-3)Gal(b1-4)GlcNAc": {"target": "Gal(a1-3)Gal(b1-4)GlcNAc", "method_in_brief": "(§1)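 Glycan array binding is given as a within-array Z-score, which can be read as non-binding when negative. The arrays, 3228 of them, came from the Consortium for Functional Glycomics database and were retained only where the protein sequence was available. Z-scores were averaged across arrays of the same protein sequence at different concentrations or buffers and across linkers.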"}, "[1]": {"target": "Gal(a1-3)Gal(b1-4)GlcNAc(b1-2)Man", "method_in_brief": "as §1"}, "[2]": {"target": "Gal(a1-3)Gal(b1-4)GlcNAc(b1-2)Man(a1-3)[Gal(a1-3)Gal(b1-4)GlcNAc(b1-2)Man(a1-6)]Man(b1-4)GlcNAc(b1-4)GlcNAc", "method_in_brief": "as §1"}, "[3]": {"target": "Gal(a1-3)Gal(b1-4)GlcNAc(b1-3)GalNAc", "method_in_brief": "as §1"}, "[4]": {"target": "Gal(a1-3)Gal(b1-4)GlcNAc(b1-6)GalNAc", "method_in_brief": "as §1"}, "[5]": {"target": "Gal(a1-3)Gal(b1-4)[Fuc(a1-3)]GlcNAc", "method_in_brief": "as §1"}, "[6]": {"target": "Gal(a1-3)Gal(b1-4)[Fuc(a1-3)]GlcNAc(b1-2)Man(a1-3)[Gal(a1-3)Gal(b1-4)[Fuc(a1-3)]GlcNAc(b1-2)Man(a1-6)]Man(b1-4)GlcNAc(b1-4)GlcNAc", "method_in_brief": "as §1"}, "Gal(a1-3)GalNAc": {"target": "Gal(a1-3)GalNAc", "method_in_brief": "as §1"}, "[7]": {"target": "Gal(a1-3)[Gal(a1-4)]Gal(b1-4)GlcNAc", "method_in_brief": "as §1"}, "[8]": {"target": "Gal(a1-4)Gal(b1-3)GlcNAc(b1-2)Man(a1-3)[Gal(a1-4)Gal(b1-3)GlcNAc(b1-2)Man(a1-6)]Man(b1-4)GlcNAc(b1-4)GlcNAc", "method_in_brief": "as §1"}, "Gal(a1-4)Gal(b1-4)Glc": {"target": "Gal(a1-4)Gal(b1-4)Glc", "method_in_brief": "as §1"}, "Gal(a1-4)Gal(b1-4)GlcNAc": {"target": "Gal(a1-4)Gal(b1-4)GlcNAc", "method_in_brief": "as §1"}, "[9]": {"target": "Gal(a1-4)Gal(b1-4)GlcNAc(b1-2)Man(a1-3)[Gal(a1-4)Gal(b1-4)GlcNAc(b1-2)Man(a1-6)]Man(b1-4)GlcNAc(b1-4)GlcNAc", "method_in_brief": "as §1"}, "[10]": {"target": "Gal(a1-4)Gal(b1-4)GlcNAc(b1-3)Gal(b1-4)Glc", "method_in_brief": "as §1"}, "Gal(a1-4)GlcNAc": {"target": "Gal(a1-4)GlcNAc", "method_in_brief": "as §1"}, "Gal(a1-6)Glc": {"target": "Gal(a1-6)Glc", "method_in_brief": "as §1"}, "Gal(b1-2)Gal": {"target": "Gal(b1-2)Gal", "method_in_brief": "as §1"}, "Gal(b1-3)Gal": {"target": "Gal(b1-3)Gal", "method_in_brief": "as §1"}, "Gal(b1-3)Gal(b1-4)GlcNAc": {"target": "Gal(b1-3)Gal(b1-4)GlcNAc", "method_in_brief": "as §1"}, "Gal(b1-3)GalNAc": {"target": "Gal(b1-3)GalNAc", "method_in_brief": "as §1"}, "[11]": {"target": "Gal(b1-3)GalNAc(a1-3)[Fuc(a1-2)]Gal(b1-4)Glc", "method_in_brief": "as §1"}, "[12]": {"target": "Gal(b1-3)GalNAc(a1-3)[Fuc(a1-2)]Gal(b1-4)GlcNAc", "method_in_brief": "as §1"}, "Gal(b1-3)GalNAc(b1-3)Gal": {"target": "Gal(b1-3)GalNAc(b1-3)Gal", "method_in_brief": "as §1"}, "[13]": {"target": "Gal(b1-3)GalNAc(b1-3)Gal(a1-4)Gal(b1-4)Glc", "method_in_brief": "as §1"}, "[14]": {"target": "Gal(b1-3)GalNAc(b1-4)Gal(b1-4)Glc", "method_in_brief": "as §1"}, "[15]": {"target": "Gal(b1-3)GalNAc(b1-4)[Neu5Ac(a2-3)]Gal(b1-4)Glc", "method_in_brief": "as §1"}, "Gal(b1-3)GlcNAc": {"target": "Gal(b1-3)GlcNAc", "method_in_brief": "as §1"}, "[16]": {"target": "Gal(b1-3)GlcNAc(a1-3)Gal(b1-4)GlcNAc", "method_in_brief": "as §1"}, "[17]": {"target": "Gal(b1-3)GlcNAc(a1-6)Gal(b1-4)GlcNAc", "method_in_brief": "as §1"}, "Gal(b1-3)GlcNAc(b1-2)Man": {"target": "Gal(b1-3)GlcNAc(b1-2)Man", "method_in_brief": "as §1"}, "[18]": {"target": "Gal(b1-3)GlcNAc(b1-2)Man(a1-3)[Gal(b1-3)GlcNAc(b1-2)Man(a1-6)]Man(b1-4)GlcNAc(b1-4)GlcNAc", "method_in_brief": "as §1"}, "[19]": {"target": "Gal(b1-3)GlcNAc(b1-2)Man(a1-3)[Gal(b1-3)GlcNAc(b1-2)Man(a1-6)]Man(b1-4)GlcNAc(b1-4)[Fuc(a1-6)]GlcNAc", "method_in_brief": "as §1"}, "[20]": {"target": "Gal(b1-3)GlcNAc(b1-2)Man(a1-3)[GlcNAc(b1-4)][Gal(b1-3)GlcNAc(b1-2)Man(a1-6)]Man(b1-4)GlcNAc(b1-4)GlcNAc", "method_in_brief": "as §1"}, "[21]": {"target": "Gal(b1-3)GlcNAc(b1-2)[Gal(b1-3)GlcNAc(b1-6)]Man(a1-6)[Gal(b1-3)GlcNAc(b1-2)Man(a1-3)]Man(b1-4)GlcNAc(b1-4)GlcNAc", "method_in_brief": "as §1"}, "[22]": {"target": "Gal(b1-3)GlcNAc(b1-3)Gal(b1-3)GlcNAc", "method_in_brief": "as §1"}, "[23]": {"target": "Gal(b1-3)GlcNAc(b1-3)Gal(b1-4)Glc", "method_in_brief": "as §1"}, "[24]": {"target": "Gal(b1-3)GlcNAc(b1-3)Gal(b1-4)GlcNAc", "method_in_brief": "as §1"}, "[25]": {"target": "Gal(b1-3)GlcNAc(b1-3)Gal(b1-4)GlcNAc(b1-2)Man(a1-3)[Gal(b1-3)GlcNAc(b1-3)Gal(b1-4)GlcNAc(b1-2)Man(a1-6)]Man(b1-4)GlcNAc(b1-4)GlcNAc", "method_in_brief": "as §1"}, "[26]": {"target": "Gal(b1-3)GlcNAc(b1-3)Gal(b1-4)GlcNAc(b1-2)[Gal(b1-3)GlcNAc(b1-3)Gal(b1-4)GlcNAc(b1-6)]Man(a1-6)[Gal(b1-3)GlcNAc(b1-3)Gal(b1-4)GlcNAc(b1-2)Man(a1-3)]Man(b1-4)GlcNAc(b1-4)[Fuc(a1-6)]GlcNAc", "method_in_brief": "as §1"}, "[27]": {"target": "Gal(b1-3)GlcNAc(b1-3)Gal(b1-4)GlcNAc(b1-3)Gal(b1-4)GlcNAc(b1-2)[Gal(b1-3)GlcNAc(b1-3)Gal(b1-4)GlcNAc(b1-3)Gal(b1-4)GlcNAc(b1-6)]Man(a1-6)[Gal(b1-3)GlcNAc(b1-3)Gal(b1-4)GlcNAc(b1-3)Gal(b1-4)GlcNAc(b1-2)Man(a1-3)]Man(b1-4)GlcNAc(b1-4)[Fuc(a1-6)]GlcNAc", "method_in_brief": "as §1"}, "[28]": {"target": "Gal(b1-3)GlcNAc(b1-3)Gal(b1-4)GlcNAc(b1-6)[Gal(b1-3)GlcNAc(b1-3)]Gal(b1-4)Glc", "method_in_brief": "as §1"}, "[29]": {"target": "Gal(b1-3)GlcNAc(b1-3)Gal(b1-4)[Fuc(a1-3)]GlcNAc", "method_in_brief": "as §1"}, "[30]": {"target": "Gal(b1-3)GlcNAc(b1-3)Gal(b1-4)[Fuc(a1-3)]GlcNAc(b1-6)[Gal(b1-3)GlcNAc(b1-3)]Gal(b1-4)Glc", "method_in_brief": "as §1"}, "[31]": {"target": "Gal(b1-3)GlcNAc(b1-3)GalNAc", "method_in_brief": "as §1"}, "[32]": {"target": "Gal(b1-3)GlcNAc(b1-6)Gal(b1-4)GlcNAc", "method_in_brief": "as §1"}}, "note": "The list shows a part of the results.", "data": [{"binder": "B1", "values": [{"measurement": "glycan array binding signal (z-score)", "setting": "Gal(a1-3)Gal(b1-4)GlcNAc", "result": -0.256}, {"measurement": "glycan array binding signal (z-score)", "setting": "[1]", "result": -0.446}, {"measurement": "glycan array binding signal (z-score)", "setting": "[2]", "result": -0.178}, {"measurement": "glycan array binding signal (z-score)", "setting": "[3]", "result": -0.431}, {"measurement": "glycan array binding signal (z-score)", "setting": "[4]", "result": -0.928}, {"measurement": "glycan array binding signal (z-score)", "setting": "[5]", "result": -0.367}, {"measurement": "glycan array binding signal (z-score)", "setting": "[6]", "result": 0.356}, {"measurement": "glycan array binding signal (z-score)", "setting": "Gal(a1-3)GalNAc", "result": -0.386}, {"measurement": "glycan array binding signal (z-score)", "setting": "[7]", "result": -0.129}, {"measurement": "glycan array binding signal (z-score)", "setting": "[8]", "result": 0.111}, {"measurement": "glycan array binding signal (z-score)", "setting": "Gal(a1-4)Gal(b1-4)Glc", "result": -0.34}, {"measurement": "glycan array binding signal (z-score)", "setting": "Gal(a1-4)Gal(b1-4)GlcNAc", "result": -0.051}, {"measurement": "glycan array binding signal (z-score)", "setting": "[9]", "result": 0.974}, {"measurement": "glycan array binding signal (z-score)", "setting": "[10]", "result": -2.13}, {"measurement": "glycan array binding signal (z-score)", "setting": "Gal(a1-4)GlcNAc", "result": -0.467}, {"measurement": "glycan array binding signal (z-score)", "setting": "Gal(a1-6)Glc", "result": -0.101}, {"measurement": "glycan array binding signal (z-score)", "setting": "Gal(b1-2)Gal", "result": 0.037}, {"measurement": "glycan array binding signal (z-score)", "setting": "Gal(b1-3)Gal", "result": 0.078}, {"measurement": "glycan array binding signal (z-score)", "setting": "Gal(b1-3)Gal(b1-4)GlcNAc", "result": -0.195}, {"measurement": "glycan array binding signal (z-score)", "setting": "Gal(b1-3)GalNAc", "result": -0.346}, {"measurement": "glycan array binding signal (z-score)", "setting": "[11]", "result": 0.271}, {"measurement": "glycan array binding signal (z-score)", "setting": "[12]", "result": -0.921}, {"measurement": "glycan array binding signal (z-score)", "setting": "Gal(b1-3)GalNAc(b1-3)Gal", "result": -0.315}, {"measurement": "glycan array binding signal (z-score)", "setting": "[13]", "result": 0.012}, {"measurement": "glycan array binding signal (z-score)", "setting": "[14]", "result": -0.36}, {"measurement": "glycan array binding signal (z-score)", "setting": "[15]", "result": -0.265}, {"measurement": "glycan array binding signal (z-score)", "setting": "Gal(b1-3)GlcNAc", "result": -0.236}, {"measurement": "glycan array binding signal (z-score)", "setting": "[16]", "result": 0.436}, {"measurement": "glycan array binding signal (z-score)", "setting": "[17]", "result": -0.177}, {"measurement": "glycan array binding signal (z-score)", "setting": "Gal(b1-3)GlcNAc(b1-2)Man", "result": 0.189}, {"measurement": "glycan array binding signal (z-score)", "setting": "[18]", "result": 1.15}, {"measurement": "glycan array binding signal (z-score)", "setting": "[19]", "result": -0.234}, {"measurement": "glycan array binding signal (z-score)", "setting": "[20]", "result": 0.088}, {"measurement": "glycan array binding signal (z-score)", "setting": "[21]", "result": 1.01}, {"measurement": "glycan array binding signal (z-score)", "setting": "[22]", "result": -0.167}, {"measurement": "glycan array binding signal (z-score)", "setting": "[23]", "result": -0.273}, {"measurement": "glycan array binding signal (z-score)", "setting": "[24]", "result": -0.301}, {"measurement": "glycan array binding signal (z-score)", "setting": "[25]", "result": 1.18}, {"measurement": "glycan array binding signal (z-score)", "setting": "[26]", "result": 10.4}, {"measurement": "glycan array binding signal (z-score)", "setting": "[27]", "result": 10.8}, {"measurement": "glycan array binding signal (z-score)", "setting": "[28]", "result": 0.452}, {"measurement": "glycan array binding signal (z-score)", "setting": "[29]", "result": -0.17}, {"measurement": "glycan array binding signal (z-score)", "setting": "[30]", "result": -0.28}, {"measurement": "glycan array binding signal (z-score)", "setting": "[31]", "result": -0.136}, {"measurement": "glycan array binding signal (z-score)", "setting": "[32]", "result": -0.228}]}]}
